Reference: PubChem BioAssay AID1347120 (National Center for Advancing Translational Sciences (NCATS), 2019)
Screen size: about 390,000 compounds; about 930 (0.24%) were called active. The shares of active, inactive and inconclusive entries below differ from those in the screen. Calls come from the whole dose curve; as a rule, active = well fitted activation curve with a large enough effect; inconclusive = small, poorly fitted or top-dose-only effect; inactive = no such curve, though single readings can be large or run the other way. Potencies beside an inconclusive call are fits to weak or partial responses and may not hold up.

assay: qHTS for Suppressors of FUS Proteinopathy: Primary screen using FUS-linked yeast assay; note: nearly all actives have a fitted effect of over 55% in size; conditions: S. cerevisiae FUS-expressing, OD600, 24 h; Potency: growth rescue; series mostly up to 76.6 µM
Summary of the method: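 Read-out: OD at 600 nm after 24hr at 30C, reporting rescue of FUS-induced yeast toxicity. Cells at OD 0.005 in galactose (2%) minimal medium; compounds tested in a dilution series; CP55940 titration from 92uM final as control.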
Potency is the fitted concentration of half-maximal effect; tags give direction and shape of the fitted curve.

| Structure (SMILES) | Potency |
| --- | --- |
| O=C(CS(=O)c1ccc(C(F)(F)F)cc1[N+](=O)[O-])Oc1ccccc1 (centres undefined) | inactive |
| Cc1ccc(Cl)cc1NC(=O)N1CCC2(CC1)Oc1ccccc1C(=O)N2Cc1ccccc1F | inactive |
| CN(C)S(=O)(=O)c1ccc(C(=O)N2CC(=O)Nc3ccc(F)cc3C2c2ccc(F)cc2)cc1 (centres undefined) | inconclusive: 15.8 µM [activator, partial curve, poor fit] |
| Cc1ccc(CN(C(=O)COc2ccc(C(C)C)cc2)C2CCS(=O)(=O)C2)o1 (centres undefined) | inconclusive: 39.8 µM [activator, partial curve, poor fit] |
| COc1ccc(CC(=O)N2CC(=O)Nc3ccc(Br)cc3C2c2ccc(F)cc2)cc1 (centres undefined) | inconclusive: 28.2 µM [activator, single point] |
| CCCn1c(=O)c2sccc2n2c(CCCC(=O)Nc3ccccc3OCC)nnc12 | inactive |
| CCCCCCSc1ccc(-c2nc3cnccn3c2NCCCC)cc1 | inconclusive: 50.1 µM [activator, single point] |
| O=C(c1ccc2[nH]c3c(c2c1)CCCC3)N1CCN(c2ccc(F)cc2)CC1 | inconclusive: 14.1 µM [activator, partial curve] |
| CCN1CCN(CCCNC(=O)CNC(=O)c2nn(-c3ccc(OC)cc3OC)c(=O)c3ccccc23)CC1 | inconclusive: 8.91 µM [activator, partial curve, poor fit] |
| Cc1ccc(S(=O)(=O)Nc2nc3ccccc3nc2N2CCc3ccccc3C2)cc1 | inconclusive: 10 µM [activator, partial curve, poor fit] |
| O=C(Cc1ccc(F)cc1)N1CCC(c2nc3c(nnn3Cc3ccc(F)cc3)c(=O)[nH]2)CC1 | inconclusive: 31.6 µM [activator, single point] |
| Cc1ccc(CNC(=O)c2nc(-c3ccc(Cl)cc3)n3c2CCCCC3)cc1 | inconclusive: 50.1 µM [activator, single point] |
| CCCCNc1c(-c2cc3ccccc3o2)nc2nc(C)cc(C)n12 | inconclusive: 22.4 µM [activator, partial curve, poor fit] |
| COc1ccc(S(=O)(=O)N2CCCCCC2)cc1C(=O)N(C)Cc1ccc(C(C)(C)C)cc1 | inconclusive: 22.4 µM [activator, single point] |
| Cc1ccc(-c2nc(COC(=O)C3=NN(c4ccccc4)C(=O)CC3)cs2)cc1 | inconclusive: 28.2 µM [activator, single point] |
| CCOC(=O)N1CCN(C(=O)c2ccc3c(Cl)c4c(nc3c2)CCCC4)CC1 | inconclusive: 22.4 µM [activator, partial curve, poor fit] |
| CCc1ccc(N2C(=O)Cc3c2nc(N)c(C#N)c3N)cc1 | active: 25.1 µM |
| c1ccc(-c2ccc3[nH]ccc3c2)cc1 | inactive |
| Cc1cc(C)c2nc(N(CCCN(C)C)C(=O)c3ccc(S(=O)(=O)N4CC(C)OC(C)C4)cc3)sc2c1 (centres undefined) | inconclusive: 6.31 µM [activator, partial curve, poor fit] |
| COc1ccc(/C=N/NC(=O)c2nc(-c3ccccc3)cc(-c3ccccc3)n2)cc1OC | inactive |

| Structure (SMILES) | Potency |
| --- | --- |
| COc1ccc(OC)c(CCNC(=O)CN2C(=O)COc3ccc(S(=O)(=O)N4CCC(C)CC4)cc32)c1 | inconclusive: 15.8 µM [activator, partial curve, poor fit] |
| Cc1cnc(C(=O)OCC(=O)c2csc(N3CCCCC3)n2)cn1 | inconclusive: 20 µM [activator, partial curve, poor fit] |
| Cc1ccc(OCC(=O)Nc2ccc(N3CCCC3)cc2)cc1C | inconclusive: 7.08 µM [activator, partial curve] |
| CC(=O)Nc1ccc(C(=O)OCCCOC(=O)c2ccc(NC(C)=O)cc2)cc1 | inactive |
| COC(=O)[C@H]1C[C@@]2(Oc3ccc(Br)cc3)c3ccccc3N(C(=O)OC(C)(C)C)[C@H]2N1C(=O)OC(C)(C)C | inconclusive: 22.4 µM [activator, single point] |
| Cc1cccc(N(C)C(=O)CN(C)S(=O)(=O)c2ccc3[nH]c4c(c3c2)CCCC4)c1 | active: 31.6 µM |
| COc1cccc(OC)c1C(=O)Nc1ccccc1N1CCCC1 | inactive |
| CCCS(=O)(=O)c1c(S(=O)(=O)CCC)c2c(C)cccn2c1C(=O)N/N=C/c1cc(O)cc(O)c1 | inconclusive: 10 µM [activator, partial curve] |
| C#CCOCCOCCOCCNc1nc(N2CCN(C(=O)CCCCCCCCCCNC(=O)[C@H](CCCCN)n3cc(C[C@@H](C)CC)nn3)CC2)nc(N2CCN(C(=O)CCCCCCCCCCNC(=O)[C@H](CCCN=C(N)N)n3cc(C[C@@H](C)CC)nn3)CC2)n1 | active: 10 µM |
| Cc1nnc(SCc2nc(-c3ccc(Cl)cc3)no2)n1-c1ccc(F)cc1 | inconclusive: 28.2 µM [activator, single point] |
| CCc1ccc2nc(N(CCCN(C)C)C(=O)c3ccc(S(=O)(=O)N(C)C4CCCCC4)cc3)sc2c1 | inconclusive: 20 µM [activator, single point] |
| COc1ccccc1NC(=O)Cn1c(=O)n(CCc2ccccc2)c(=O)c2c3c(sc21)CN(C(C)=O)CC3 | inactive |
| COc1ccc(O)c(C2Nc3ccccc3-n3c(-c4ccccc4)c4c(=O)n(C)c(=O)n(C)c4c32)c1 (centres undefined) | inconclusive: 31.6 µM [activator, single point] |
| COc1ccc(CN(CCC(c2ccccc2)c2ccc(OC(C)C)cc2)C(=O)CCl)cc1OC (centres undefined) | inconclusive: 25.1 µM [activator, single point] |
| COc1ccc(S(=O)(=O)Nc2cccc(-c3ccc(N4CCCCCC4)nn3)c2)cc1 | inconclusive: 35.5 µM [activator, single point] |
| Cc1ccc(N=Cc2cc(Cc3ccccc3Cl)cc([N+](=O)[O-])c2O)c(O)c1 | inactive |
| CCCCOc1ccc(C2OC34CCCCC3C(C#N)(C#N)C2(C#N)C(=N)O4)cc1 (centres undefined) | inactive |
| Cc1ccc(Cl)cc1NC(=O)COCc1cc(-c2ccco2)on1 | inactive |
| COc1ccc(NC(=O)C2=CC(c3ccc(OC)c(OC)c3)=NS(=O)(=O)N2C)cc1 | active: 31.6 µM |
